# Results: publication PMC12040169 (PLOS Biology, 2025)
# Some of the results follow.
# System: T1, C. trachomatis L2/434/Bu expressing GFP (CTL2-GFP)
# T1 construct: L2/434/Bu GFP intracellular growth in HeLa cells
# Design: species or system HeLa; C. trachomatis total inclusion area by high-content imaging, normalised to DMSO
# Conditions: total inclusion area; 28.5 h, 10 µM; inhibitor
# How it was run: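 High-content imaging followed the bulk GFP/resorufin measurement: fixed, Hoechst-stained cells were scored for GFP inclusions and host nuclei per well. Total inclusion area and count served as growth proxies, nuclei number as the viability proxy. MIC calculation matched the bulk assay.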
row,SMILES,% of control remaining
1,O=C(c1nc[nH]n1)N1CCN(c2nccc(CCC(F)(F)F)n2)CC1 [CBK307306],41.9697
2,CCn1cc([C@H]2CN(C)C[C@@H]2N(C)C)c2ccccc21 [CBK285468],80.7999
3,O=C(c1cccc(F)c1)N1C2CCC1CC(O)(c1cccnc1F)C2 (stereo not drawn) [CBK284422],67.5434
4,COc1ccc(CCNC(=O)C2CCN(S(=O)(=O)c3ccccc3)CC2)cc1 [CBK264985],92.3083
5,COc1ccccc1Cn1nc2nnc(-c3ccccc3)c(-c3ccccc3)n2c1=O [CBK286185],97.3983
6,CS(=O)(=O)Nc1nc2ccc(S(C)(=O)=O)cc2s1 [CBK092166],54.3931
7,CNC(=O)C1CCN(Cc2ccc(-c3nnn(CC(=O)NCc4ccc(C)cc4)n3)cc2)CC1 [CBK153195T],82.2658
8,CC(=O)N1C[C@@H](c2cccc(C)c2)[C@@H]2CN(CC3CC3)CC[C@@H]21 [CBK283372],107.421
9,NC(=O)C1(Cc2ccc(-c3ccccc3)cc2)CCN(C(=O)COc2ccccc2)CC1 [CBK285773],97.3165
10,Cc1nn(C)c(N2CCNCC2)c1NC(=O)CN(C)C(=O)c1ccccc1 [CBK050255T],59.83
11,Cc1cccc2cc(CN(Cc3ccco3)C(=O)C3CCCCC3)c(O)nc12 [CBK269178],69.3643
12,COC(=O)[C@@H](C)NC(=O)[C@@H]1CN(C(=O)c2cccc(F)c2)CCN1C(=O)C1CCCCC1 [CBK289621],102.358
13,O=C(O)C1CCN(C(=O)NCc2ccc(F)cc2)CC1 [CBK156070],101.619
14,N#Cc1nccnc1N1CCN(Cc2ccc3c(c2)OCO3)CC1 [CBK011284],82.6081
15,O=C(NC1CCCCC1)NS(=O)(=O)c1ccc(CCNC(=O)c2cccs2)cc1 [CBK011888],33.581
16,CN(C)S(=O)(=O)c1ccc(C(=O)C2=C(O)C(=O)N(CCN3CCCCC3)C2c2cccnc2)cc1 (stereo not drawn) [CBK264700],102.711
17,CC(C)NC(=O)N1Cc2nc[nH]c2C[C@H]1c1nc(-c2ccc3c(c2)OCO3)no1 [CBK289001],107.49
18,CCn1cc(C(=O)O)c(=O)c2cnc(N3CCN(C(=S)NC(=O)c4cccs4)CC3)nc21 [CBK265753],90.0728
19,O=C(CN1Cc2ccccc2C1)N1CCCC1c1nc2ccccc2[nH]1 (stereo not drawn) [CBK283710],100.282
20,COc1cc(C)c(-c2nc(C)nc(C)c2C)c(C)c1 [CBK306711],56.202
21,O=C(Cn1ncc2cccn2c1=O)c1ccc(F)cc1 [CBK283627],62.1286
22,O=C(NCCN1CCOCC1)c1sc2cc(F)ccc2c1Cl [CBK018212],70.0416
23,Cc1cc(C(=O)N2CCC(Cc3ccccc3-c3ccccc3)(C(=O)N(C)C)CC2)cs1 [CBK285676],97.8905
24,CC1(C(=O)N2CCc3onc(-c4ccccc4F)c3C2)CCCO1 (stereo not drawn) [CBK282660],105.898
25,O=C(CN1C(=O)N2CCCN=C2c2ccccc21)NCc1ccccc1 [CBK284403],79.0156
26,O=C(CN1C(=O)CCC1=O)Nc1nc2ccccc2s1 [CBK287345],72.3816

row,SMILES,% of control remaining
1,Cc1ccc(NC(=O)C(=O)NCCCN2CCOCC2)cc1Cl [CBK264806],109.644
2,O=C1N=C(NC2CCCCC2)SC1Cc1nc2ccccc2o1 (stereo not drawn) [CBK067970],98.7496
3,O=C(c1ccc2nc[nH]c2c1)N1Cc2ccccc2C1 [CBK200322],102.341
4,CCOc1ccc(S(=O)(=O)Nc2ccc(C(=O)O)cc2)cc1 [CBK287171],100.105
5,CCn1cc(CN(CCN(C)C)Cc2cccs2)c(C)n1 [CBK283037],85.0889
6,CC(C)C(=O)N1CCCC1c1cc2n(n1)[C@@H](C(F)(F)F)C[C@@H](C)N2 (stereo partly drawn) [CBK282966],81.2509
7,Cc1cc2ncc3c(n2n1)CC1CCC3N1C(=O)c1cccs1 (stereo not drawn) [CBK284415],104.277
8,O=C(c1cccc(F)c1)N1CCN(Cc2ccccn2)CC1 [CBK263023],85.9351
9,CC1=NN(c2nc(-c3cccc([N+](=O)[O-])c3)cs2)C(=O)C1/N=N/c1ccc(C)c(Br)c1 (stereo not drawn) [CBK262430],117.472
10,CC(C)(C)OC(=O)Nc1ccc2c(ccn2CCN2CCOCC2)c1 [CBK161767],64.6492
11,O=C(O)CCSc1nc(-c2ccccc2)cc(=O)[nH]1 [CBK287076],109.604
12,Cc1cnc(CNC(=O)N2CCN(CCN3CCOCC3)CC2)cn1 [CBK155673],82.4441
13,O=C1CCC(=O)N1CCOc1nccnc1OC1CCN(CCOc2ccccc2)CC1 [CBK084354],99.946
14,c1ccc(CCNc2cc(-c3ccsc3)ncn2)nc1 [CBK036963],150.177
15,CC(C)[C@H]1CN(Cc2ccco2)CCN1C(=O)c1cscn1 [CBK285490],103.158
16,CC(C)SCC(=O)Nc1ccc(Br)cc1 [CBK057618],46.623
17,O=C(N[C@H]1CCN2C(=O)c3cc(-c4cccs4)ccc3NC(=O)[C@H]12)c1cnccn1 [CBK289337],81.6826
18,O=C(Nc1nnc(-c2ccc3c(c2)OCCO3)o1)c1cccc(F)c1 [CBK287402],122.661
19,N#CC1CCC(CNC(=O)c2sc3ccccc3c2Cl)CC1 (stereo not drawn) [CBK010864],102.217
20,Cc1nonc1-c1csc(CC(C)n2cc(Cl)cn2)n1 (stereo not drawn) [CBK304704],49.6083
21,O=C(/C=C/c1ccc2c(c1)OCO2)NCCSc1ccccn1 [CBK264012],96.9337
22,Cc1nc(C2CCN(C(=O)CC3CCCC3)CC2)ncc1C(=O)Nc1ccc(Cl)cc1 [CBK285847],91.6418
23,Cc1cc2cccc(NC(=O)NCc3cncn3CC(C)C)c2o1 [CBK306715],58.5324
24,C[C@H]1[C@@H]2[C@@H](O)C([C@H](C)C(=O)N3CCCC3)CC[C@@]2(C)CC[C@@H]1NC(=O)c1ccccc1 (stereo partly drawn) [CBK289441],105.479
25,CC(=O)Nc1nc2c3ccccc3n(C(C)=O)c2s1 [CBK011360],75.8636
26,O=C(O)CCC(C(=O)O)N1C(=O)c2cc(Cl)c(Cl)cc2C1=O (stereo not drawn) [CBK264156],104.992

row,SMILES,% of control remaining
1,CCOc1ccc(NC(=O)C(C)Sc2nc3ccc(F)cc3[nH]2)cc1 (stereo not drawn) [CBK266047],93.8381
2,COc1ccc2c(c1)CC(=O)NC21CCN(Cc2c(F)cccc2F)CC1 [CBK039835],77.4287
3,O=C(CSc1ccc(Cl)cc1)Nc1ccc(CN2CCOCC2)cc1 [CBK305855],37.4896
4,O=C(NCCc1ccccc1)c1cc(-c2ccccc2Cl)[nH]n1 [CBK288113],106.862
5,CCC(CC)Oc1ccc(C2(C)NC(=O)NC2=O)cc1 (stereo not drawn) [CBK288409],71.6216
6,CC1CCC(C(N)=O)CN1C(=O)c1csc(Br)c1 (stereo not drawn) [CBK305812],59.6232
7,COc1ccc2[nH]cc(CC(=O)N3CCCC4(CCN(C(=O)c5ccc(OC)c(OC)c5)C4)C3)c2c1 (stereo not drawn) [CBK131666],101.82
8,O=C1c2ccccc2S(=O)(=O)N1CC(O)Cn1ccc2ccccc21 (stereo not drawn) [CBK267905],106.652
9,C=CCNC(=O)N[C@H]1[C@H](O)[C@@H](N2CCCC2)[C@@H]2OC[C@H]1O2 [CBK288829],107.148
10,CCCCC(=O)N(C)c1c(CC)nc2c(OCc3ccc(C#N)cc3)cccn12 [CBK147779],93.0533
11,O=S(=O)(Oc1ccccc1)c1ccc2c(c1)Cc1cc(S(=O)(=O)Oc3ccccc3)ccc1-2 [CBK231928],83.4607
12,COc1ccc(N2CCN(CC(O)c3c[nH]c4cc(OC)ccc34)CC2)cc1 (stereo not drawn) [CBK286355],96.6052
13,CCOC(=O)C1CCCN(Cc2ccc3c(c2)OCO3)C1 (stereo not drawn) [CBK074569],85.8367
14,O=C(O)c1cccc(C(=O)Nc2cccc(NC(=O)C3CCCO3)c2)c1 (stereo not drawn) [CBK268566],104.773
15,O=C(CCS(=O)(=O)c1ccccc1)Nc1c(F)cc(F)cc1OC1CCNCC1 [CBK050226T],60.6556
16,Clc1ccccc1C1N(Cc2ccccc2)CCN1Cc1ccccc1 [CBK261217],102.846
17,CC(=O)NCc1ccc(-c2ccc(C(=O)NC3(c4ccccc4)CCCC3)c(C)n2)cc1 [CBK285891],91.5057
18,FC(F)(F)CCN1CCC2(CC1)NCCc1c2[nH]c2ccc(Cl)cc12 [CBK039331],33.8496
19,COc1ccccc1NCc1c(O)c(Br)cc2oc3c(c12)CCCC3 [CBK160398],29.5394
20,Sc1nnc(COc2ccccc2)n1/N=C/c1cccnc1 [CBK265308],102.608
21,OCCN1CCN(C(c2cccs2)c2ccc3cccnc3c2O)CC1 (stereo not drawn) [CBK296964],43.1997
22,CC(C)N1CCC2(C/C=C/CNC(=O)c3ccccc3OCCNC2=O)CC1 [CBK292094],124.206
23,CN1C(=O)c2ccccc2C(=O)[C@@]2(C)CN(C(=O)C3CCCC3)C[C@@H]12 [CBK284570],105.164
24,O=C(O)CCc1nc(-c2ccc3[nH]ccc3c2)no1 [CBK287070],101.99
25,CCOC(=O)c1c(NC(=O)C2CCCCC2C(=O)O)sc(C)c1C (stereo not drawn) [CBK265469],94.5233
26,Cc1ccc(CN(Cc2nccn2C)C2CC(C)(C)NC(C)(C)C2)o1 [CBK283190],50.6603
